According to PubChem BioAssay AID463173 (ICCB-Longwood Screening Facility, Harvard Medical School, 2010):
Among all 52,000 compounds or so, about 4,300 (8.3%) were called active. Cut-off read from the data, not from the text of the source: active = survival mostly below about 52% (no sharp cut-off); inactive = mostly above about 56%. Some of the results follow.

System: DeltatarO mutant
Assay: growth inhibition of S. aureus wild type versus tarO mutant, primary screen, teichoic acid synthesis inhibitors, RN4220, OD600 (AID 463173)
Conditions: OD600, 18 h, active compounds read low, screened at 18.75 µg/mL (by protocol)

SMILES	survival
CCN(CC)S(=O)(=O)c1ccc2c(c1)c(=O)c(C(=O)N1CCN(c3cccc(Cl)c3)CC1)cn2C	inactive: 85%
CCc1ccc(C(=O)c2cn(CC(=O)Nc3ccc4c(c3)OCO4)c3ccc(F)cc3c2=O)cc1	inactive: 75%
CCOc1ccccc1CNC(=O)C1CCN(c2nc3ccccc3nc2C(F)(F)F)CC1	inactive: 69%
COc1ccc(-c2n[nH]c3c2cnc2cc(OC)c(OC)cc23)cc1	inactive: 76%
Fc1ccc(-c2nn(-c3ccc(Cl)cc3)c3c2cnc2ccc(F)cc23)cc1	inactive: 73%
CCC(C(=O)NCCc1cc(OC)ccc1OC)n1nc(C)c2c(C)n(-c3ccccc3)nc2c1=O (stereo not drawn)	inactive: 98%
CCOc1ccccc1NC(=O)Cn1c(=O)n(Cc2cccs2)c(=O)c2cccnc21	inactive: 60%
CC(Sc1nc(=O)cc(N)n1CCc1ccccc1)C(=O)Nc1cccc(Cl)c1 (stereo not drawn)	inactive: 64%
Cc1ccc(OCCn2cc(C=C(C#N)C#N)c3ccccc32)cc1	inactive: 92%
O=C(Cn1c2[n+](c3ccccc31)CC(O)CS2)N1CCCCC1 (stereo not drawn)	inactive: 72%
COc1ccc(-n2c(=O)c3ccccc3n(Cc3ccccc3Cl)c2=O)cc1	inactive: 110%
COc1ccc(C(=O)Nc2nc3n(n2)C(c2ccc(Cl)cc2)C=C(c2ccccc2)N3)cc1OC (stereo not drawn)	inactive: 59%
Cc1ccc(C)c(CN2C(=O)c3ccccc3S(=O)c3ccc(C(=O)N4CCOCC4)cc32)c1 (stereo not drawn)	inactive: 79%
Cc1ccc(S(=O)(=O)c2nnn3c2nc(N2CCOCC2)c2sccc23)cc1C	inactive: 35%
Cc1ccc(Nc2sc(C(=O)c3ccc(F)cc3)c(N)c2S(=O)(=O)c2ccc(C)cc2)cc1	inactive: 116%
COc1ccccc1N1CCN(S(=O)(=O)c2c(C)sc3ncn(CC(=O)Nc4ccc(C)cc4Br)c(=O)c23)CC1	inactive: 73%
Cc1ccc(-n2ncc(C(=O)NC3CCN(Cc4ccccc4)CC3)c2C2CCN(C(=O)OC(C)(C)C)CC2)cc1C	inactive: 92%
O=C(Nc1ccc2nc(SCC(=O)N3CCCc4ccccc43)sc2c1)c1ccc(Cl)cc1	inactive: 84%
CCCS(=O)(=O)Nc1cc(-c2cn3ccc(C)cc3n2)ccc1C	inactive: 78%
CCOc1ccccc1C(=O)Nc1ccc(S(=O)(=O)N(Cc2ccccc2)c2ccccc2)cc1	inactive: 113%
Cc1ccc(-n2cc(C(=O)OCc3ccc(F)c(F)c3)c3ccccc3c2=O)cc1	inactive: 68%
CCCN1Cc2cccc(C(=O)Nc3ccccc3C(=O)OC)c2C1=O	inactive: 127%
CCOc1ccc(NC(=O)CN2CCN(CC(=O)Nc3ccc(F)cc3F)CC2)cc1	inactive: 100%
